Experimental data: paper PMC4336329 (PLoS ONE, 2015)
The whole screen tested about 310,000 compounds, of which about 2,200 (0.71%) showed an effect of 50% or more. Effects have a minus sign here. Some of the results follow.

target: human ether-à-go-go-related gene (hERG) potassium channel (human, UniProt Q12809); test: primary screen, population patch clamp on CHO cells stably expressing hERG
Sequence (Q12809 whole entry, looked up): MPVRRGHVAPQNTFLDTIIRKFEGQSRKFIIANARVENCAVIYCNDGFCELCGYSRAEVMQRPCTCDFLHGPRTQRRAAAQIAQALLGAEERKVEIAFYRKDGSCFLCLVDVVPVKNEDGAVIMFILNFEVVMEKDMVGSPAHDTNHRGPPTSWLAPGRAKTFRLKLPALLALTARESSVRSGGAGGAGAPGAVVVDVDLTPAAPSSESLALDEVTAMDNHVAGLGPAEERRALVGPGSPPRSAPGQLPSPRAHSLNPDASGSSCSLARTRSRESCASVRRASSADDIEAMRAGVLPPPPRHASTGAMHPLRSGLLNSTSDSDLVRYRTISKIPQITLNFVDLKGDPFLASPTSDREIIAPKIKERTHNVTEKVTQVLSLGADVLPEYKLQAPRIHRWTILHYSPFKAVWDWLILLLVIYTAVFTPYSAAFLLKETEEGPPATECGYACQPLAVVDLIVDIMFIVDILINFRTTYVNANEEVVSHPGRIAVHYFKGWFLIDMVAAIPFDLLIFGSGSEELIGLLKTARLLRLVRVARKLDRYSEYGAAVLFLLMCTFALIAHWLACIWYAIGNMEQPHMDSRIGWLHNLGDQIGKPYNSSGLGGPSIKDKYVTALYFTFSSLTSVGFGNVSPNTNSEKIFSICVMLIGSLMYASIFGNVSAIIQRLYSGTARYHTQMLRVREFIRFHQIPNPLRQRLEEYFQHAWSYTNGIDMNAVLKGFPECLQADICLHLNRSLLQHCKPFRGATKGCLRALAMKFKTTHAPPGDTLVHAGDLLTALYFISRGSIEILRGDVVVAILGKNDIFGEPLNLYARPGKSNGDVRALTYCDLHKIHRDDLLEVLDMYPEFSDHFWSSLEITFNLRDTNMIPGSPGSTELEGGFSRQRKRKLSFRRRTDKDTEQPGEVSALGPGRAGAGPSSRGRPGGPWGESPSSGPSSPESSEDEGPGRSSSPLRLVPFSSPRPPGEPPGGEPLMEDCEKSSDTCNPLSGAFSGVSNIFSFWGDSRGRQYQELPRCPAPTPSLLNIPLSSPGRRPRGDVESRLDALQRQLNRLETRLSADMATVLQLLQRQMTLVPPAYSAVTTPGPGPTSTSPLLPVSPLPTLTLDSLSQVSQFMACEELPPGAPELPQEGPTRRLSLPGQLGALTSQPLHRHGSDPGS

Structure (SMILES)	hERG current change (%, negative = inhibition) at 1uM [%]
CC(=O)Nc1ccc(-c2csc(NC(=O)CCCc3cccs3)n2)cc1	8.68
COc1cc([C@H]2[C@@H]3CCCC[C@]3(O)CCN2CC(=O)Nc2ccc(C)cc2C)ccc1O	12.1
Cc1[nH]c2ccccc2c1C(=O)CSc1nncn1C	8.79
O=C(O)CCCC(=O)Nc1ccc(N=Nc2ccccc2)cc1	10.8
COc1ccccc1OCc1ccc(C(=O)N/N=C/c2ccco2)cc1	12.6
O=C(NC(=S)Nc1ccc(Cl)c(C(=O)O)c1)c1ccc(OCc2ccccc2)cc1	12.5
COCCN(C(=O)COC(=O)Cc1cccc2ccccc12)c1c(N)n(Cc2ccccc2)c(=O)[nH]c1=O	-0.428
Cc1ccc(Nc2nc(N)[nH]c(=O)c2N=O)cc1	11.7
CC1=CC=CN2C1=NC(=O)CC2(C)C(=O)N(CC(=O)NC1CCCC1)c1ccccc1C (stereo not shown)	10.2
CC(C)C(=O)NNC(=O)CSc1nnnn1C(C)C	10.8
CCOC(=O)c1ccc(NC(=O)c2cc(F)c(F)cc2Cl)cc1	-2.39
COCCN(C(=O)C1CC1)c1nnc(-c2ccc(C)cc2)s1	16.4
CC1Cc2ccccc2N1C(=O)COC(=O)c1ccc(Cl)c(S(=O)(=O)N2CCOCC2)c1 (stereo not shown)	5.86
O=C(CN1C(=O)C2C3c4ccccc4C(c4ccccc43)C2C1=O)Nc1ccccc1C(=O)O (stereo not shown)	10.3
Cc1nn(C)c(C)c1/C=C/C(=O)c1ccc(Cl)cc1Cl	9.04
O=C(Nc1ccc(Cl)cc1)c1ccc(S(=O)(=O)N2CCOCC2)cc1	11
OCCCn1c(C2CCCN2c2nc(-c3ccc(F)cc3)cs2)nc2cc(C(F)(F)F)ccc21 (stereo not shown)	2.52
Cc1ccc(S(=O)(=O)CC(=O)Nc2nnc(C)s2)cc1	2.1
Cc1ccccc1NC(=O)Cc1nc(COC(=O)CNS(=O)(=O)c2cccc(Br)c2)cs1	-6.7
CCC(C)Nc1nc(N)c([N+](=O)[O-])c(Nc2ccccc2OC)n1 (stereo not shown)	7.54
COc1ccc(/C=C2\SC(=S)N(CCC(=O)NC3=NCCS3)C2=O)cc1OC	-1.3
C/C(=N\NC(=O)c1nnn(-c2nonc2N)c1CN(C)c1ccccc1)c1ccccc1O	14.6

Structure (SMILES)	hERG current change (%, negative = inhibition) at 1uM [%]
N/C(=N\S(=O)(=O)c1ccc(Cl)s1)c1ccccc1	0.25
COc1ccccc1NC(=S)NC(NC(=O)CC(C)C)C(Cl)(Cl)Cl (stereo not shown)	17
O=C(Nc1ccc(OCC(=O)N2CCOCC2)cc1)c1ccccc1F	10.9
C/C(=N\NC(=O)c1cccs1)C(C)(C)C	12.8
CN(CC(=O)Nc1ccccc1C(F)(F)F)C(=O)C1CCN(S(=O)(=O)c2ccc3c(c2)OCCO3)CC1	0.631
COc1ccccc1-c1coc2c(CN3CCOCC3)c(O)ccc2c1=O	8.86
O=c1c2ccccc2nc(/C=C/c2ccccc2)n1CCc1ccccc1	-4.92
COc1ccc(N(CC(=O)NC2CCCCC2)C(=O)CNC(=O)c2cccs2)cc1	12.8
CC(=O)NC1(c2ccc(F)cc2)CCN(C(=O)Nc2ccc(F)cc2F)CC1	3.08
CN(CCCC(=O)Nc1nccs1)S(=O)(=O)c1ccc(Cl)cc1	10.9
Cc1ccc2nc(Nc3ccc(Cl)cc3)c3nncn3c2c1	13.4
CN1CCC(NC(=O)Cc2c(F)cccc2Cl)CC1	8.76
Cc1ccc(/C=C/C(=O)O)cc1S(=O)(=O)N(C)CCO	1.66
COC(=O)Nc1nc(-c2ccccc2)c(C(=O)c2ccccc2)s1	1.89
CCN(CC)C(=S)NC(=O)c1ccc(OC)c(Br)c1	13.5
CN(CC(=O)Nc1cccc(F)c1)C(=O)c1cc(S(=O)(=O)N2CCN(c3ccccc3)CC2)ccc1Cl	-0.495
Nc1cc(=O)[nH]c(SCC(=O)Nc2ccccc2-c2ccccc2)n1	13.3
CC(C)(C)c1ccc(C(=O)NNC(=O)c2cccc(Br)c2)cc1	11.5
COc1ccc(C2CC(c3ccccc3C)n3nc(N)nc3N2)cc1 (stereo not shown)	2.16
C/C(=N\NC(=O)c1cc(-c2ccncc2)nc2ccccc12)c1ccc(OC(F)F)cc1	-4.44
Cc1cc(-c2nc(C)c(C(=O)NNS(=O)(=O)c3cccc(C(F)(F)F)c3)s2)no1	7.14
O=C(/C=C/c1ccco1)Nc1cccc2cccnc12	7.94

Structure (SMILES)	hERG current change (%, negative = inhibition) at 1uM [%]
O=C(Nc1ccc(NC(=S)NC(=O)c2ccccc2F)cc1)c1cccs1	5.55
CCCCCC(=O)Nc1ccc(-c2csc(N)n2)cc1	7.1
Cc1c(Cl)ccc2sc(NC(=O)CN3C(=O)c4ccccc4C3=O)nc12	12.8
CCC(Sc1nc2cc(OC)c(OC)cc2c(=O)n1Cc1ccc(OC)cc1)C(=O)NCCOC (stereo not shown)	-6.75
Cc1cc(C)nc(SCC(=O)c2ccc(O)c(O)c2)n1	16
COc1cccc(NC(=O)C(=O)c2cn(CC(=O)N3CCCC3)c3ccccc23)c1	12.6
O=C1/C(=C/c2cc([N+](=O)[O-])ccc2Cl)N2CCC1CC2	-3.92
CCCCNC(=O)c1onc(CSc2ccncc2)c1C(=O)NCCCC	14.1
CCN(C(=O)CN(C)Cc1cccc(Cl)c1Cl)c1c(N)n(Cc2ccccc2)c(=O)[nH]c1=O	6.57
CN1CCN(c2ccc(S(=O)(=O)N3CCCCC3)cc2NC(=O)c2cccc([N+](=O)[O-])c2)CC1	-7.23
CC1(C)Cc2c(c(=S)nc(-c3ccccc3)n2CCN2CCOCC2)CO1	6.74
Cc1c(NC(=O)C(C)OC(=O)CC2Sc3ccccc3NC2=O)c(=O)n(-c2ccccc2)n1C (stereo not shown)	14.4
CC(=O)c1cccc(N(C(=O)Cn2nnc3ccccc32)C(C(=O)NC2CCCCC2)c2cn(C)nc2C)c1 (stereo not shown)	-0.0434
N#CCc1ccc(NC(=O)c2cc(S(=O)(=O)N3CCOCC3)ccc2Cl)cc1	9.35
CCNc1c(NC(=O)COc2ccc(Cl)cc2)c(=O)oc2ccccc12	3.75
COc1ccc(N2C(=O)C3CCCN3C2c2cccc(C)c2)cc1 (stereo not shown)	8.84
CC(C)CCNC(=O)NC(=O)CSc1nnc(COc2ccccc2Cl)o1	-4.56
CCCNC(=O)CCc1c(C)nc2nc(-c3cc(OC)cc(OC)c3)nn2c1C	6.87
C=CC1CN(C(=O)OCC(Cl)(Cl)Cl)C2CC3c4ccc(OC)cc4NC3C3CC1C2CO3 (stereo not shown)	4.62
CCOc1cc(-c2noc(-c3cccnc3)n2)ccc1OC	5.67
CC(C)n1cc(CN2CCC(C(=O)Nc3cccc(-c4cscn4)c3)CC2)cn1	0.715
CSc1ncccc1C(=O)N1CCN(C(=O)c2ccccc2)CC1	12.4

Structure (SMILES)	hERG current change (%, negative = inhibition) at 1uM [%]
CCCN1C(=O)N(C)C(N(O)C(=O)NC)C1(C)C (stereo not shown)	8.06
CCOCCCn1c(=N)c(C(N)=S)cc2c(=O)n3cccc(C)c3nc21	-85.5
CCOc1ccc(C(=O)CCN2CCCCC2)cc1	4.71
O=C(NCc1ccco1)c1ccc(CS(=O)Cc2ccc(Cl)cc2)o1 (stereo not shown)	-0.6
CN(C)CCOc1ccc(Cl)cc1C(C)(C)C.O=C(O)C(=O)O	3.21
O=C(CCSc1nnc(-c2ccncc2)o1)Nc1cccc(Cl)c1	1.61
Cc1ccc(Nc2nc(N)c([N+](=O)[O-])c(NCCO)n2)cc1C	4.68
Cc1cccn2cc(CNC(=O)C3CCCCC3)nc12	9.27
COc1ccc(/C(O)=C2\C(=O)C(=O)N(c3cc(C)on3)C2c2ccccc2OC)cc1C (stereo not shown)	4.94
O=C(N=Nc1c(O)[nH]c(=O)[nH]c1=O)C1COc2ccccc2O1 (stereo not shown)	6.77
CC(NC(=O)/C=C/c1ccco1)c1nc2ccccc2n1Cc1cccc(Cl)c1 (stereo not shown)	-4.89
O=C(c1ccccn1)C1CCCN(Cc2cn[nH]c2-c2cc3ccccc3o2)C1 (stereo not shown)	-23.5
COc1ccc(CCNc2ccc(C(CC(N)=O)NC(=O)c3ccccc3)cc2[N+](=O)[O-])cc1 (stereo not shown)	6.7
O=C(NC(=O)c1ccccc1Cl)C(=O)Nc1ccc(Cl)cc1	10.5
CCCn1nc(C(=O)OCC(=O)Nc2cccc(S(N)(=O)=O)c2)c2ccccc2c1=O	10.7
COc1ccc(/C=C/C(=O)NCc2cn(C)nc2C)cc1COc1ccc(Cl)cc1Br	7.05
CC(=O)N(CC1CCCO1)c1nnc(-c2ccccn2)s1 (stereo not shown)	-3.15
CCOP(=O)(OCC)C(O)c1ccc(OC)cc1OC (stereo not shown)	11.1
Cc1sc2nc(SCC(=O)NCCOCCO)n(C)c(=O)c2c1C	1.47
